# The supplement of paper PMC10037445
# Over roughly 2,900 compounds, “NF-kB SEAP reporter activity, fold change vs agonist alone” has its median near 0.99; the highest 2% begin near 2.6. The list shows a part of the results.
# How the values were obtained:
# RAW-Dual [1] = experiment: NF-kB SEAP reporter activity, fold change vs agonist alone; cytotoxicity flag (confluency mask): not cytotoxic; higher = enhanced NF-kB activity
# Summary of the method: (§1)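 Reporter activity is given as fold change relative to agonist-alone wells. To measure it, 50 nL of library stock was pin-tooled onto RAW-Dual macrophages (50,000 cells/well, DMEM, 384-well plates), a PRR agonist followed 1 h later, and cells stayed at 37 °C, 5% CO2. Twenty hours on, supernatant was assayed for IRF (QuantiLuc luminescence) and NF-κB (QuantiBlue, 620 nm absorbance), and wells under 70% of agonist-control IncuCyte confluency in both mask sets were marked cytotoxic.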
# RAW-Dual [2] = experiment: NF-kB SEAP reporter activity, fold change vs agonist alone; higher = enhanced NF-kB activity
# Summary of the method: as §1
# RAW-Dual [3] = experiment: NF-kB SEAP reporter activity, fold change vs agonist alone; cytotoxicity flag (confluency mask): cytotoxic (confluency <70% of control); higher = enhanced NF-kB activity
# Summary of the method: as §1
# [4] = agonist: ODN 1826 (TLR9) 0.5 ug/mL
# [5] = agonist: Pam2CSK4 (TLR2/6) 0.1 ug/mL
# [6] = agonist: Pam3CSK4 (TLR2/1) 0.1 ug/mL
# [7] = library stock concentration (final ~1000-fold dilution): 10 mM, cytotoxicity flag (confluency mask): not cytotoxic, agonist: Imiquimod (TLR7) […]
# [8] = library stock concentration (final ~1000-fold dilution): 10 mM, cytotoxicity flag (confluency mask): not cytotoxic, agonist: MPLA (TLR4) […]
# [9] = library stock concentration (final ~1000-fold dilution): 10 mM water, cytotoxicity flag (confluency mask): not cytotoxic, agonist: Imiquimod (TLR7) […]
# [10] = library stock concentration (final ~1000-fold dilution): 10 mM water, cytotoxicity flag (confluency mask): not cytotoxic, agonist: MPLA (TLR4) […]
smiles,measurement,setting,value
COc1cc(C(C)=O)ccc1O (library stock concentration (final ~1000-fold dilution): 10 mM),NF-kB SEAP reporter activity,RAW-Dual [1]; agonist: LPS (TLR4) 0.1 ug/mL,1.04
same,NF-kB SEAP reporter activity,RAW-Dual [1]; [4],1.04
same,NF-kB SEAP reporter activity,RAW-Dual [1]; [5],0.925
same,NF-kB SEAP reporter activity,RAW-Dual [1]; [6],1.13
COc1cc(C(C)=O)ccc1O,NF-kB SEAP reporter activity,RAW-Dual [2]; [7],0.932
same,NF-kB SEAP reporter activity,RAW-Dual [2]; [8],0.986
CC/C(=C(/c1ccc(/C=C/C(=O)O)cc1)c1ccc2[nH]ncc2c1)c1ccc(F)cc1Cl,NF-kB SEAP reporter activity,RAW-Dual [2]; [7],0.465
same,NF-kB SEAP reporter activity,RAW-Dual [2]; [8],0.809
CC/C(=C(/c1ccc(/C=C/C(=O)O)cc1)c1ccc2[nH]ncc2c1)c1ccc(F)cc1Cl (library stock concentration (final ~1000-fold dilution): 10 mM),NF-kB SEAP reporter activity,RAW-Dual [1]; agonist: LPS (TLR4) 0.1 ug/mL,0.434
same,NF-kB SEAP reporter activity,RAW-Dual [1]; [4],0.355
same,NF-kB SEAP reporter activity,RAW-Dual [1]; [5],0.404
same,NF-kB SEAP reporter activity,RAW-Dual [1]; [6],0.233
CCOC(=O)C(N)Cc1ccc(-c2cc(OC(c3ccc(Cl)cc3-n3ccc(C)n3)C(F)(F)F)nc(N)n2)cc1.O=C(O)CNC(=O)c1ccccc1 (stereo not drawn),NF-kB SEAP reporter activity,RAW-Dual [2]; [7],0.878
same,NF-kB SEAP reporter activity,RAW-Dual [2]; [8],1
CCOC(=O)C(N)Cc1ccc(-c2cc(OC(c3ccc(Cl)cc3-n3ccc(C)n3)C(F)(F)F)nc(N)n2)cc1.O=C(O)CNC(=O)c1ccccc1 (stereo not drawn) (library stock concentration (final ~1000-fold dilution): 10 mM),NF-kB SEAP reporter activity,RAW-Dual [1]; agonist: LPS (TLR4) 0.1 ug/mL,0.456
same,NF-kB SEAP reporter activity,RAW-Dual [1]; [4],0.938
same,NF-kB SEAP reporter activity,RAW-Dual [1]; [5],0.584
same,NF-kB SEAP reporter activity,RAW-Dual [1]; [6],0.914
C[N+](C)(C)CCOC(=O)CCC(=O)OCC[N+](C)(C)C (library stock concentration (final ~1000-fold dilution): 10 mM water),NF-kB SEAP reporter activity,RAW-Dual [1]; agonist: LPS (TLR4) 0.1 ug/mL,1
same,NF-kB SEAP reporter activity,RAW-Dual [1]; [4],1.06
same,NF-kB SEAP reporter activity,RAW-Dual [1]; [5],1.21
same,NF-kB SEAP reporter activity,RAW-Dual [1]; [6],1.05
C[N+](C)(C)CCOC(=O)CCC(=O)OCC[N+](C)(C)C,NF-kB SEAP reporter activity,RAW-Dual [2]; [9],0.911
same,NF-kB SEAP reporter activity,RAW-Dual [2]; [10],1.01
CC(Cc1ccc(O)c(O)c1)(NN)C(=O)O (stereo not drawn),NF-kB SEAP reporter activity,RAW-Dual [2]; [7],0.949
same,NF-kB SEAP reporter activity,RAW-Dual [2]; [8],0.988
CC(Cc1ccc(O)c(O)c1)(NN)C(=O)O (stereo not drawn) (library stock concentration (final ~1000-fold dilution): 10 mM),NF-kB SEAP reporter activity,RAW-Dual [1]; agonist: LPS (TLR4) 0.1 ug/mL,1.1
same,NF-kB SEAP reporter activity,RAW-Dual [1]; [4],0.98
same,NF-kB SEAP reporter activity,RAW-Dual [1]; [5],0.954
same,NF-kB SEAP reporter activity,RAW-Dual [1]; [6],1.14
CCCCCCCCCCCCCCCCOP(=O)([O-])OCC[N+](C)(C)C,NF-kB SEAP reporter activity,RAW-Dual [2]; [9],1.02
same,NF-kB SEAP reporter activity,RAW-Dual [2]; [10],1.27
CCCCCCCCCCCCCCCCOP(=O)([O-])OCC[N+](C)(C)C (library stock concentration (final ~1000-fold dilution): 10 mM water),NF-kB SEAP reporter activity,RAW-Dual [1]; agonist: LPS (TLR4) 0.1 ug/mL,1.18
same,NF-kB SEAP reporter activity,RAW-Dual [1]; [4],1.05
same,NF-kB SEAP reporter activity,RAW-Dual [1]; [5],0.97
same,NF-kB SEAP reporter activity,RAW-Dual [1]; [6],1.13
Cc1cc(O)c(-c2ccc(C(C)CN)cc2)c2c1[nH]c(=O)c1sccc12.Cl (stereo not drawn) (library stock concentration (final ~1000-fold dilution): 10 mM),NF-kB SEAP reporter activity,RAW-Dual [3]; agonist: LPS (TLR4) 0.1 ug/mL,0.417
same,NF-kB SEAP reporter activity,RAW-Dual [3]; [4],0.188
same,NF-kB SEAP reporter activity,RAW-Dual [3]; [5],0.0673
same,NF-kB SEAP reporter activity,RAW-Dual [3]; [6],0.13
Cc1cc(O)c(-c2ccc(C(C)CN)cc2)c2c1[nH]c(=O)c1sccc12.Cl (stereo not drawn),NF-kB SEAP reporter activity,"RAW-Dual [2]; library stock concentration (final ~1000-fold dilution): 10 mM, cytotoxicity flag (confluency mask): cytotoxic (confluency <70% of control), agonist: Imiquimod (TLR7) […]",0.193
same,NF-kB SEAP reporter activity,"RAW-Dual [2]; library stock concentration (final ~1000-fold dilution): 10 mM, cytotoxicity flag (confluency mask): cytotoxic (confluency <70% of control), agonist: MPLA (TLR4) […]",0.246
COc1ccccc1OCC(O)CN1CCN(CC(=O)Nc2c(C)cccc2C)CC1.Cl.Cl (stereo not drawn),NF-kB SEAP reporter activity,RAW-Dual [2]; [7],0.889
same,NF-kB SEAP reporter activity,RAW-Dual [2]; [8],0.916
COc1ccccc1OCC(O)CN1CCN(CC(=O)Nc2c(C)cccc2C)CC1.Cl.Cl (stereo not drawn) (library stock concentration (final ~1000-fold dilution): 10 mM),NF-kB SEAP reporter activity,RAW-Dual [1]; agonist: LPS (TLR4) 0.1 ug/mL,0.912
same,NF-kB SEAP reporter activity,RAW-Dual [1]; [4],0.972
same,NF-kB SEAP reporter activity,RAW-Dual [1]; [5],1.01
same,NF-kB SEAP reporter activity,RAW-Dual [1]; [6],1.05
